This is one part of the list. Rule as the data show it: active = 3.2 or more and inactive = the rest. Most of these values are background signal.
Legend:
Test in all cases: enrichment score (SH2-bound / input frequency) (ratio); bacterial display of known human phosphotyrosine sites (pTyr-Var adds point mutants) read by sequencing; higher = stronger binding; tyrosines were phosphorylated by kinases first
Settings in all cases: peptide library: pTyr-Var
[1] = molecular target: SHP2 C-SH2 domain E139D
[2] = molecular target: SHP2 C-SH2 domain wild-type
[3] = molecular target: SHP2 N-SH2 domain L43F
[4] = molecular target: SHP2 N-SH2 domain T42A
[5] = molecular target: SHP2 N-SH2 domain T52S
[6] = molecular target: SHP2 N-SH2 domain wild-type

Measured: enrichment score
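Also: displayed peptides selected on beads carrying the immobilized SH2 domain, with library peptides lacking any tyrosine serving as negative controls.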

B1: PTEN_Y174_R173P_YF (peptide)
chain: PSQRPYVFFFS
active: [1] 3.59 | [3] 3.32 | [4] 3.45 | [5] 3.26
inactive: [2] 3.1 | [6] 2.45

B2: PTEN_Y174_S170N (peptide)
chain: PNQRRYVYYYS
inactive: [1] 0.537 | [2] 0.516 | [3] 0.355 | [4] 0.503 | [5] 0.538 | [6] 0.411

B3: PTEN_Y174_S170N_YF (peptide)
chain: PNQRRYVFFFS
inactive: [1] 1.01 | [2] 1.09 | [3] 1.59 | [4] 1.39 | [5] 1.99 | [6] 0.829

B4: PTEN_Y174_V175L (peptide)
chain: PSQRRYLYYYS
inactive: [1] 0.222 | [2] 0.4 | [3] 0.352 | [4] 0.197 | [5] 0.499 | [6] 0.263

B5: PTEN_Y174_V175L_YF (peptide)
chain: PSQRRYLFFFS
inactive: [1] 0.755 | [2] 0.356 | [3] 0.413 | [4] 0.428 | [5] 0.427 | [6] 0.463

B6: PTEN_Y174_Y174N (peptide)
chain: PSQRRNVYYYS
inactive: [1] 0.555 | [2] 0.403 | [3] 0.416 | [4] 0.671 | [5] 0.673 | [6] 0.462

B7: PTEN_Y176 (peptide)
chain: QRRYVYYYSYL
inactive: [1] 0.646 | [2] 1.57 | [3] 1.82 | [4] 1.19 | [5] 0.421 | [6] 0.686

B8: PTEN_Y176_R173C (peptide)
chain: QRCYVYYYSYL
inactive: [1] 0.884 | [2] 1.69 | [3] 1.11 | [4] 1.09 | [5] 1.17 | [6] 1.7

B9: PTEN_Y176_R173H (peptide)
chain: QRHYVYYYSYL
inactive: [1] 2.05 | [2] 2.41 | [3] 1.58 | [4] 1.58 | [5] 1.52 | [6] 1.89

B10: PTEN_Y176_V175L (peptide)
chain: QRRYLYYYSYL
inactive: [1] 0.405 | [2] 0.396 | [3] 0.327 | [4] 0.43 | [5] 0.574 | [6] 0.497

B11: PTEN_Y176_V175L_YF (peptide)
chain: QRRFLYFFSFL
inactive: [1] 0.679 | [2] 0.655 | [3] 0.698 | [4] 0.741 | [5] 0.634 | [6] 0.387

B12: PTEN_Y176_Y174N_YF (peptide)
chain: QRRNVYFFSFL
inactive: [1] 1.58 | [2] 0.94 | [3] 1.05 | [4] 1.22 | [5] 1.19 | [6] 1.2

B13: PTEN_Y177 (peptide)
chain: RRYVYYYSYLL
inactive: [1] 0.311 | [2] 0.235 | [3] 0.313 | [4] 0.262 | [5] 0.558 | [6] 0.331

B14: PTEN_Y177_R173C (peptide)
chain: RCYVYYYSYLL
inactive: [1] 1.16 | [2] 1.04 | [3] 0.875 | [4] 0.73 | [5] 0.739 | [6] 0.886

B15: PTEN_Y177_R173C_YF (peptide)
chain: RCFVFYFSFLL
inactive: [1] 1.52 | [2] 1.16 | [3] 0.953 | [4] 1.12 | [5] 1.58 | [6] 1.08

B16: PTEN_Y177_V175L_YF (peptide)
chain: RRFLFYFSFLL
inactive: [1] 0.296 | [2] 0.273 | [3] 0.488 | [4] 0.323 | [5] 0.345 | [6] 0.305

B17: PTEN_Y178 (peptide)
chain: RYVYYYSYLLK
inactive: [1] 2.18 | [2] 2.09 | [3] 2.21 | [4] 2.19 | [5] 2.28 | [6] 2.35

B18: PTEN_Y178_R173C (peptide)
chain: CYVYYYSYLLK
inactive: [1] 0.776 | [2] 1.14 | [3] 0.898 | [4] 0.788 | [5] 1.14 | [6] 1.26

B19: PTEN_Y178_R173C_YF (peptide)
chain: CFVFFYSFLLK
inactive: [1] 1.71 | [2] 2.05 | [3] 2.02 | [4] 1.93 | [5] 1.98 | [6] 1.57

B20: PTEN_Y178_R173H (peptide)
chain: HYVYYYSYLLK
inactive: [1] 0.778 | [2] 1.01 | [3] 0.689 | [4] 0.63 | [5] 0.847 | [6] 1.2

B21: PTEN_Y178_R173H_YF (peptide)
chain: HFVFFYSFLLK
inactive: [1] 1.39 | [2] 1.93 | [3] 1.62 | [4] 2 | [5] 1.13 | [6] 1.65

B22: PTEN_Y178_R173P_YF (peptide)
chain: PFVFFYSFLLK
inactive: [1] 1.51 | [2] 1.22 | [3] 1.49 | [4] 1.26 | [5] 1.32 | [6] 1.32

B23: PTEN_Y178_YF (peptide)
chain: RFVFFYSFLLK
inactive: [1] 1.49 | [2] 1.23 | [3] 1.27 | [4] 1.26 | [5] 1.3 | [6] 0.774

B24: PTEN_Y180 (peptide)
chain: VYYYSYLLKNH
inactive: [1] 1.43 | [2] 1.5 | [3] 1.63 | [4] 1.18 | [5] 1.36 | [6] 1.19

B25: PTEN_Y180_V175L_YF (peptide)
chain: LFFFSYLLKNH
inactive: [1] 1.47 | [2] 1.31 | [3] 1.13 | [4] 1.25 | [5] 1.16 | [6] 1.15

B26: PTEN_Y240 (peptide)
chain: EDKFMYFEFPQ
inactive: [1] 1.07 | [2] 1.35 | [3] 1.19 | [4] 1.12 | [5] 1.08 | [6] 1.24

B27: PTEN_Y240_F241L (peptide)
chain: EDKFMYLEFPQ
inactive: [1] 0.81 | [2] 0.838 | [3] 0.941 | [4] 0.722 | [5] 0.711 | [6] 0.951

B28: PTEN_Y240_F241S (peptide)
chain: EDKFMYSEFPQ
inactive: [1] 0.694 | [2] 0.583 | [3] 0.746 | [4] 0.572 | [5] 0.596 | [6] 0.638

B29: PTEN_Y27 (peptide)
chain: DLDLTYIYPNI
inactive: [1] 1.06 | [2] 0.99 | [3] 0.886 | [4] 0.737 | [5] 0.985 | [6] 0.985

B30: PTEN_Y27_Y27S_YF (peptide)
chain: DLDLTSIFPNI
inactive: [1] 1.05 | [2] 0.895 | [3] 0.866 | [4] 0.705 | [5] 1 | [6] 1.1

B31: PTEN_Y46_L42R (peptide)
chain: RREGVYRNNID
inactive: [1] 0.218 | [2] 0.348 | [3] 0.377 | [4] 0.392 | [5] 0.248 | [6] 0.373

B32: PTEN_Y68 (peptide)
chain: NHYKIYNLCAE
inactive: [1] 0.903 | [2] 0.833 | [3] 0.82 | [4] 0.849 | [5] 0.916 | [6] 0.995

B33: PTEN_Y68_C71Y (peptide)
chain: NHYKIYNLYAE
inactive: [1] 0.651 | [2] 0.81 | [3] 0.886 | [4] 0.651 | [5] 0.817 | [6] 0.799

B34: PTEN_Y68_Y68C_YF (peptide)
chain: NHFKICNLCAE
inactive: [1] 2.63 | [2] 2.77 | [3] 2.87 | [4] 2.3 | [5] 2.7 | [6] 2.43

B35: PTEN_Y68_Y68H_YF (peptide)
chain: NHFKIHNLCAE
inactive: [1] 0.86 | [2] 0.864 | [3] 0.88 | [4] 1.01 | [5] 1.03 | [6] 0.87

B36: PTEN_Y68_YF (peptide)
chain: NHFKIYNLCAE
inactive: [1] 0.633 | [2] 0.527 | [3] 1 | [4] 0.599 | [5] 0.88 | [6] 0.478

B37: PTGS1_Y54 (peptide)
chain: FGLDRYQCDCT
inactive: [1] 1.5 | [2] 1.62 | [3] 1.58 | [4] 1.36 | [5] 1.47 | [6] 1.72
